Test results from the GPR68 mutational scans of Howard et al. (2025).

B1: GPR68, Q15743 (parent)
chain: MGNITADNSSMSCTIDHTIHQTLAPVVYVTVLVVGFPANCLSLYFGYLQIKARNELGVYLCNLTVADLFYICSLPFWLQYVLQHDNWSHGDLSCQVCGILLYENIYISVGFLCCISVDRYLAVAHPFRFHQFRTLKAAVGVSVVIWAKELLTSIYFLMHEEVIEDENQHRVCFEHYPIQAWQRAINYYRFLVGFLFPICLLLASYQGILRAVRRSHGTQKSRKDQIQRLVLSTVVIFLACFLPYHVLLLVRSVWEASCDFAKGVFNAYHFSLLLTSFNCVADPVLYCFVSETTHRDLARLRGACLAFLTCSRTGRAREAYPLGAPEASGKSGAQGEEPELLTKLHPAFQTPNSPGSGGFPTGRLA

Key:
[1] = variants of: B1; experiment: cAMP reporter score (Enrich2 score, wild type = 0); higher = more signal; HEK293T, FACS bins
[2] = variants of: B1; experiment: surface expression score (Enrich2 score, wild type = 0); higher = more signal; HEK293T, FACS bins

Row | Variant | cAMP reporter score ([1]; pH 5.5) | cAMP reporter score ([1]; pH 6) | cAMP reporter score ([1]; pH 6, modulator: ogerin) | surface expression score [2] | cAMP reporter score ([1]; pH 6.5, modulator: ogerin)
1 | MGNITADNSSMSCTIDHTIHQTLAPVVYVTVLVVGFPANCLSLYFGYLQIKARNELGVYLCNLTVADLFYICSLPFWLQYVLQHDNWSHGDLSCQVCGILLYENIYISVGFLCCISVDRYLAVAHPFRFHQFRTLKAAVGVSVVIWAKILLTSIYFLMHEEVIEDENQHRVCFEHYPIQAWQRAINYYRFLVGFLFPICLLLASYQGILRAVRRSHGTQKSRKDQIQRLVLSTVVIFLACFLPYHVLLLVRSVWEASCDFAKGVFNAYHFSLLLTSFNCVADPVLYCFVSETTHRDLARLRGACLAFLTCSRTGRAREAYPLGAPEASGKSGAQGEEPELLTKLHPAFQTPNSPGSGGFPTGRLA [E149I] | 0.567 | 3.73 | 0.54 | -0.994 | –
2 | MGNITADNSSMSCTIDHTIHQTLAPVVYVTVLVVGFPANCLSLYFGYLQIKARNELGVYLCNLTVADLFYICSLPFWLQYVLQHDNWSHGDLSCQVCGILLYENIYISVGFLCCISVDRYLAVAHPFRFHQFRTLKAAVGVSVVIWAKDLLTSIYFLMHEEVIEDENQHRVCFEHYPIQAWQRAINYYRFLVGFLFPICLLLASYQGILRAVRRSHGTQKSRKDQIQRLVLSTVVIFLACFLPYHVLLLVRSVWEASCDFAKGVFNAYHFSLLLTSFNCVADPVLYCFVSETTHRDLARLRGACLAFLTCSRTGRAREAYPLGAPEASGKSGAQGEEPELLTKLHPAFQTPNSPGSGGFPTGRLA [E149D] | -0.646 | – | -1.63 | -2.76 | -1.3
3 | MGNITADNSSMSCTIDHTIHQTLAPVVYVTVLVVGFPANCLSLYFGYLQIKARNELGVYLCNLTVADLFYICSLPFWLQYVLQHDNWSHGDLSCQVCGILLYENIYISVGFLCCISVDRYLAVAHPFRFHQFRTLKAAVGVSVVIWAKCLLTSIYFLMHEEVIEDENQHRVCFEHYPIQAWQRAINYYRFLVGFLFPICLLLASYQGILRAVRRSHGTQKSRKDQIQRLVLSTVVIFLACFLPYHVLLLVRSVWEASCDFAKGVFNAYHFSLLLTSFNCVADPVLYCFVSETTHRDLARLRGACLAFLTCSRTGRAREAYPLGAPEASGKSGAQGEEPELLTKLHPAFQTPNSPGSGGFPTGRLA [E149C] | -0.485 | – | – | -0.411 | -0.452
4 | MGNITADNSSMSCTIDHTIHQTLAPVVYVTVLVVGFPANCLSLYFGYLQIKARNELGVYLCNLTVADLFYICSLPFWLQYVLQHDNWSHGDLSCQVCGILLYENIYISVGFLCCISVDRYLAVAHPFRFHQFRTLKAAVGVSVVIWAKMLLTSIYFLMHEEVIEDENQHRVCFEHYPIQAWQRAINYYRFLVGFLFPICLLLASYQGILRAVRRSHGTQKSRKDQIQRLVLSTVVIFLACFLPYHVLLLVRSVWEASCDFAKGVFNAYHFSLLLTSFNCVADPVLYCFVSETTHRDLARLRGACLAFLTCSRTGRAREAYPLGAPEASGKSGAQGEEPELLTKLHPAFQTPNSPGSGGFPTGRLA [E149M] | 3.34 | – | – | – | -0.385
5 | MGNITADNSSMSCTIDHTIHQTLAPVVYVTVLVVGFPANCLSLYFGYLQIKARNELGVYLCNLTVADLFYICSLPFWLQYVLQHDNWSHGDLSCQVCGILLYENIYISVGFLCCISVDRYLAVAHPFRFHQFRTLKAAVGVSVVIWAKPLLTSIYFLMHEEVIEDENQHRVCFEHYPIQAWQRAINYYRFLVGFLFPICLLLASYQGILRAVRRSHGTQKSRKDQIQRLVLSTVVIFLACFLPYHVLLLVRSVWEASCDFAKGVFNAYHFSLLLTSFNCVADPVLYCFVSETTHRDLARLRGACLAFLTCSRTGRAREAYPLGAPEASGKSGAQGEEPELLTKLHPAFQTPNSPGSGGFPTGRLA [E149P] | -1.63 | – | -1.48 | -2.55 | -2.06
6 | MGNITADNSSMSCTIDHTIHQTLAPVVYVTVLVVGFPANCLSLYFGYLQIKARNELGVYLCNLTVADLFYICSLPFWLQYVLQHDNWSHGDLSCQVCGILLYENIYISVGFLCCISVDRYLAVAHPFRFHQFRTLKAAVGVSVVIWAKLLLTSIYFLMHEEVIEDENQHRVCFEHYPIQAWQRAINYYRFLVGFLFPICLLLASYQGILRAVRRSHGTQKSRKDQIQRLVLSTVVIFLACFLPYHVLLLVRSVWEASCDFAKGVFNAYHFSLLLTSFNCVADPVLYCFVSETTHRDLARLRGACLAFLTCSRTGRAREAYPLGAPEASGKSGAQGEEPELLTKLHPAFQTPNSPGSGGFPTGRLA [E149L] | -0.482 | – | -0.642 | – | -0.395

The least precise scores are not listed. Two further conditions of the source, in which the scores hardly spread, are not listed. Read del as a deletion of the residues named and ins as an insertion between two positions. For some assays here: How much ogerin was present is not stated here.
